Assay results reported in PubChem BioAssay (NCATS).
This list was built around the results that the source calls inconclusive (neither active nor inactive); the mix of calls is not that of the screen. Potencies of inconclusive entries are left out as doubtful fits. Active and inactive are the calls of the source. Calls follow the shape of the dose curve; as a rule, active = well fitted cell-killing curve with a large enough effect; inconclusive = small, poorly fitted or top-dose-only effect, or effect the other way, or another doubt; inactive = no such curve, though single readings can be large or run the other way.
% is scaled to controls: 0 for no effect and ±100 for the full control effect; potency is read from the fitted curve at half-maximal effect; tags tell the direction and shape of the fitted curve.

Experiment: qHTS screen for small molecules that inhibit ELG1-dependent DNA repair: Hit Confirmation with 5FU Viability (AID 624250)
Details: cell viability with 5-FU; series mostly up to 46.1 µM; activity change, negative = viability loss: at the top concentration
From the text: Cancer cells divide rapidly compared to normal cells in the body. During cell division, cancer cells need to duplicate their genome by DNA replication. The failure of genome duplication leads to cancer cells' death. Therefore, inhibitors of DNA replication could specifically kill cancer cells. Based on this concept, many chemotherapeutic agents were developed and have been used to treat cancer patients. However, there are a limited number of agents available in the clinical setting, and some of those that do exist have low efficacy and severe side effects. Therefore, if we can find the compounds that effectively block DNA replication either by directly damaging DNA or by inhibiting other cellular mechanisms, the options for cancer treatment will be broadened. With this in mind, we developed a quantitative high-throughput ELG1-luciferase reporter gene assay. Small molecules that specifically block ELG1 function in response to DNA damage can be identified by monitoring the suppression of luciferase activity. Since ELG1 defines a pathway for repairing DNA damage, agents blocking ELG1 function can be used to sensitize cancer cells to chemotherapeutic agents whose mechanism of action involves the induction of DNA damage.
NIH Molecular Libraries Probe Production Network [MLPCN]
NIH Chemical Genomics Center [NCGC]
Assay Provider: Kyungjae Myung, NHGRI, NIH
ELG1-luc HEK293T cells will be seeded in 1536-well plates at a density of 2,000 cells/well. Approximately 5 hours after plating, compounds will be added to the plate by pin tool transfer and 5-fluorouridine will be added by FRD dispenser (final concentration of 5-fluorouridine =10 µM). 16 hours following the addition of the compounds, cell viability will be measured using Cell Titer Glo.
For `CCOc1ccc(C(C(=O)NC2CCCC2)N(C(=O)c2snc(C(N)=O)c2N)c2cccc(O)c2)cc1` (stereo not given), the Potency was inconclusive [rising, partial curve]. For `CC(Sc1nc(N2CCOCC2)c2c(c1C#N)CC(C)(C)OC2)C(=O)Nc1ccccc1` (stereo not given), the Potency was inconclusive [rising, full curve]. For `CCN1CCN(S(=O)(=O)c2cc(OCC(=O)NC3CCCCC3)c(C)cc2Cl)CC1`, the “activity change, negative = viability loss” value was inactive: -11.4%. In the case of `Cc1cc(C)cc(NC(=O)N2CCCC2C(=O)Nc2ccc(-n3cnnn3)cc2)c1` (stereo not given), the Potency is reported as inconclusive [rising, partial curve]. With `Cc1cc(NNC(=O)Nc2cccc(Cl)c2)nc2c1c(C)nn2C` the “activity change, negative = viability loss” value was inactive: -1.92%. In the case of `Cc1ccccc1OCC(=O)Nc1ccc(C)c(S(=O)(=O)N2CCCCCC2)c1`, the Potency is reported as inconclusive [rising, partial curve, poor fit]. For `COCCn1c(C(C)C)nc2oc3ccccc3c(=O)c2c1=O`, the “activity change, negative = viability loss” value was inactive: 10.3%. In the case of `Cc1ccc(NC(=O)CCc2nnc3ccc(N4CCC(C)CC4)nn23)nc1`, the Potency is reported as inconclusive [rising, partial curve]. With `Cc1cc(NC(=O)c2cnn3c(C(F)(F)F)cc(-c4ccccc4)nc23)no1` the “activity change, negative = viability loss” value was inactive: 10%. For `COc1cc2cnc(-c3ccccc3)c(C(=O)c3ccc(OCc4ccccc4)cc3)c2cc1OC`, the Potency was inconclusive [rising, full curve]. In the case of `O=C(Nc1ccc(N2CCN(Cc3ccccc3F)CC2)cc1)c1ccc([N+](=O)[O-])o1`, the “activity change, negative = viability loss” value is reported as inactive: 7.39%. With `CC(C)(C)OC(=O)NCCCCCNC(=O)c1ncn(Cc2ccccc2)c1C(=O)NCCCCCNC(=O)OC(C)(C)C` the Potency was inconclusive [rising, full curve]. In the case of `CCOC(=O)c1c(NC(=O)Cn2cc([N+](=O)[O-])cn2)sc2c1CCC2`, the “activity change, negative = viability loss” value is reported as inactive: 4.82%. In the case of `O=[N+]([O-])c1cc2c(c(CSc3nnc(Nc4ccccc4)s3)c1)OCOC2`, the “activity change, negative = viability loss” value is reported as inactive: 0.0795%. With `COc1cc(-c2cc(C(=O)Nc3cc(S(=O)(=O)N4CCOCC4)ccc3C)c3ccccc3n2)cc(OC)c1OC` the Potency was inconclusive [rising, full curve, poor fit]. With `COc1ccc(C(CNc2nc(-c3cccnc3)nc3ccccc23)N(C)C)cc1` (stereo not given) the Potency was inconclusive [rising, partial curve, poor fit]. In the case of `CN1CCN(c2nc(-c3ccncc3)nc3ccccc23)CC1`, the “activity change, negative = viability loss” value is reported as inactive: -15.7%. With `CCc1ccccc1NC(=O)CN1CCN(CC(=O)Nc2cc(C)ccc2OC)CC1` the “activity change, negative = viability loss” value was inactive: 7.14%. With `CCCn1c(N2CCN(CC(=O)c3c(C)n(C)c4ccc(OC)cc34)CC2)nc2c1c(=O)[nH]c(=O)n2C` the Potency was inconclusive [rising, partial curve, poor fit]. For `Cc1ccc(-c2cc(C(F)F)n3ncc(C(=O)Nc4c(C)nn(Cc5c(Cl)cccc5Cl)c4C)c3n2)cc1`, the Potency was inconclusive [rising, full curve]. For `COc1ccc(-c2cc(-c3ccc(C)cc3)nc(SCc3nnc(-c4ccccc4)o3)c2C#N)cc1OC`, the Potency was inconclusive [rising, partial curve, poor fit]. For `Cc1ccccc1OCc1nc2ccccc2c(=O)n1/N=C/c1cn[nH]c1-c1ccccc1`, the Potency was inconclusive [rising, full curve, poor fit]. With `O=C(Nc1cccc(NC(=O)c2cccc([N+](=O)[O-])c2)n1)c1cccc([N+](=O)[O-])c1` the “activity change, negative = viability loss” value was inactive: -4.05%. For `COc1ccc2ncn(-c3ccccc3)c2c1`, the “activity change, negative = viability loss” value was inactive: 9.16%. With `COc1ccc(CCN(Cc2cccs2)S(=O)(=O)c2ccc(S(=O)(=O)N3CCCCCC3)cc2)cc1OC` the “activity change, negative = viability loss” value was inactive: -10.3%. In the case of `COc1ccc(NC(=O)C2CCN(c3nc(C)nc4c3CCC4)CC2)cc1`, the “activity change, negative = viability loss” value is reported as inactive: -6.12%. For `COc1ccc(-c2cc(C(F)(F)F)n3nc(C(=O)Nc4cc(C)on4)cc3n2)cc1OC`, the Potency was inconclusive [rising, full curve]. In the case of `Cc1cccc2cc(CN(CCN3CCOCC3)C(=O)Nc3ccccc3F)c(=O)[nH]c12`, the Potency is reported as inconclusive [rising, full curve]. In the case of `COc1ccc(Cn2c(O)c(C=Nc3ccccc3C(=O)O)c3ccccc3c2=O)cc1`, the “activity change, negative = viability loss” value is reported as inactive: -14.3%. For `COc1cc2c(C#CCCO)c(-c3ccsc3)oc(=O)c2cc1OC`, the “activity change, negative = viability loss” value was inactive: -2.84%. For `O=C(Cn1cnc2cc([N+](=O)[O-])ccc2c1=O)Nc1cccc(S(=O)(=O)N2CCOCC2)c1`, the Potency was inconclusive [rising, full curve]. In the case of `O=C(/C=C/c1ccc(F)cc1)NC(=S)NNC(=O)c1cnccn1`, the “activity change, negative = viability loss” value is reported as inactive: -8.26%. For `C=CCc1c(OC(C)=O)c2ccccc2n(C)c1=O`, the “activity change, negative = viability loss” value was inactive: -0.0295%. With `COc1cc(NC(=O)C2CCCN(c3ncnc4c3nc3n4CCCCC3)C2)cc(OC)c1OC` (stereo not given) the Potency was inconclusive [rising, full curve]. With `Cn1nc(CC(=O)Nc2ccc3c(c2)CCC3)c2ccccc2c1=O` the “activity change, negative = viability loss” value was inactive: -8.24%. For `Cc1ncoc1C(=O)NC1CCCc2c1cnn2-c1ccc(C(C)(C)C)cc1` (stereo not given), the “activity change, negative = viability loss” value was inactive: -6.42%. In the case of `CCOc1cc(/C=N\Nc2nc(Nc3ccccc3)nc(N3CCOCC3)n2)ccc1OC(=O)c1ccco1`, the Potency is reported as inconclusive [rising, full curve]. With `C=CC[C@@H](CC(=O)N[C@H](CO)Cc1ccccc1)C(=O)NC[C@H](OC(=O)[C@@H](CC=C)Cc1ccc(F)cc1)c1ccccc1` the Potency was inconclusive [rising, partial curve, poor fit]. With `CC(=O)c1ccc(-n2c(C)c(C(C)=O)c3cc(O)ccc32)cc1` the “activity change, negative = viability loss” value was inactive: 0.264%. For `COc1cc2c(cc1OC)-c1cc(N3CCc4ccccc43)nc(=O)n1CC2`, the Potency was inconclusive [rising, full curve, poor fit].
